In PubChem BioAssay AID651820 (National Center for Advancing Translational Sciences (NCATS), 2012):
Where “and” joins values, the source holds several entries; their conditions need not be identical. Identical values can stand only once. Hit rate of the full screen: of about 340,000 compounds, about 12,000 (3.5%) were called active. This list was built around the results that the source calls inconclusive (neither active nor inactive); the mix of calls is not that of the screen. Calls follow the shape of the dose curve; as a rule, active = well fitted inhibition curve with a large enough effect; inconclusive = small, poorly fitted or top-dose-only effect, or another doubt; inactive = no such curve, though single readings can be large or run the other way. A potency beside an inconclusive call is a rough fit, not a confirmed value.
% is scaled to controls: 0 for no effect and ±100 for the full control effect; potency is read from the fitted curve at half-maximal effect; tags tell the direction and shape of the fitted curve.

Test: qHTS Assay for Inhibitors of Hepatitis C Virus (HCV)
Conditions: Huh7.5.1 HCVcc-Cre (HCVcc is cell-culture hepatitis C virus) infection, luciferase reporter, 44 h; activity change, negative = inhibition: at 41.8 µM (top of the series) unless noted
Outline: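 Compounds are dispensed onto cells plated 4 h earlier at 1,000 per well, with HCVcc-Cre virus (about 0.5 moi) added next. Following 44 h of culture, luminescent signal is measured for 15 sec after 15 min with substrate at room temperature.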
In the case of `COc1ccc2cc(CNCCOCCOCCNCc3ccc4cc(OC)ccc4c3)ccc2c1`, the Potency is reported as active: 3.98 µM.
For `CCOc1ccccc1N=c1oc2cc(O)ccc2cc1C(=O)NCC1CCCO1` (stereo not drawn), the Potency was inconclusive: 31.6 µM [inhibitor, single point].
With `O=S(=O)(c1ccccc1)N1CCN=C1SCc1c(F)cccc1Cl` the Potency was inconclusive: 22.4 µM [inhibitor, single point].
For `O=C1CC(c2ccc(F)cc2)CC2=C1C(c1ccc([N+](=O)[O-])o1)Nc1ccccc1N2` (stereo not drawn), the Potency was inconclusive: 3.16 µM [inhibitor, full curve, poor fit].
With `COc1cc(/C=C/C(=O)c2ccc(O)cc2)ccc1OCC#N` the Potency was inconclusive: 11.2 µM [inhibitor, single point].
In the case of `COC(=O)CC1NCCc2cc(OC)c(OC)cc21` (stereo not drawn), the “activity change, negative = inhibition” value is reported as inactive: 17.3%.
For `O=C(c1cccc(S(=O)(=O)N2CCCCC2)c1)N1CCc2ccccc21`, the Potency was inconclusive: 31.6 µM [inhibitor, single point].
For `Cc1cc(C)n(-c2ccc(Cl)c(C(=O)O)c2)n1`, the “activity change, negative = inhibition” value was inactive: 28%.
For `COc1cc(NC(=O)CSc2ncnc3c2cnn3Cc2ccccc2)cc(OC)c1`, the Potency was inconclusive: 7.94 µM [inhibitor, partial curve].
For `CC1=C(C(=O)OCC(C)C)C(c2ccsc2)C2=C(CCCC2=O)N1` (stereo not drawn), the “activity change, negative = inhibition” value was inactive: 1.79%.
With `Cc1ccc(NNC(=O)c2ccno2)cc1Cl` the Potency was active: 11.2 µM.
In the case of `CC(C)(C)NC(=O)c1ccc2c(c1)C(=O)N(C1CCCCC1)C2=O`, the Potency is reported as inconclusive: 0.501 µM [inhibitor, full curve, poor fit].
With `CCC(/C=C1\Sc2ccc(OC)cc2N1CCO)=C\c1sc2ccc(OC)cc2[n+]1CCO` the Potency was active: 5.01 µM.
With `Cc1ccc(O)c(N=Cc2cccs2)c1` the “activity change, negative = inhibition” value was inactive: 11.6%.
For `Cc1nnc(SCC(=O)Nc2nc3c(s2)CC(C)CC3)s1` (stereo not drawn), the Potency was inconclusive: 11.2 µM [inhibitor, partial curve].
With `c1ccc(-n2c(SCc3nc(-c4cccs4)no3)nnc2-c2ccco2)cc1` the Potency was inconclusive: 31.6 µM [inhibitor, single point].
With `COC(=O)C1=C(c2ccc(OCc3ccccc3)cc2)C[C@@H]2CC[C@H]1N2C(=O)NCc1cccc(OC)c1` the Potency was active: 6.31 µM.
For `COc1cc(-c2nc(C(=O)NC3CCN(Cc4ccccc4)CC3)cc3c2[nH]c2ccccc23)cc(OC)c1OC`, the Potency was inconclusive: 35.5 µM [inhibitor, partial curve, poor fit].
In the case of `CC(C)(C)n1nnnc1C(c1cccc(C#N)c1)N1CCC(Cc2ccccc2)CC1` (stereo not drawn), the Potency is reported as inconclusive: 25.1 µM [inhibitor, partial curve] and inconclusive: 31.6 µM [inhibitor, single point].
With `Cn1ncc2c(Nc3cccc(Cl)c3)nc(Nc3cccc(Cl)c3)nc21` the Potency was inconclusive: 10 µM [inhibitor, partial curve].
In the case of `CCOc1ccc(NS(=O)(=O)c2cc(NC(=O)CCC(=O)c3cccs3)ccc2Cl)cc1`, the Potency is reported as inconclusive: 31.6 µM [inhibitor, single point].
In the case of `COC(=O)c1ccc(-n2c(C)ccc2-c2ccccc2)cc1`, the “activity change, negative = inhibition” value is reported as inactive: -24.9%.
With `O=C(Nc1ccc([N+](=O)[O-])cc1)C1C(c2ccccc2)=C1c1ccccc1` the Potency was inconclusive: 11.2 µM [inhibitor, partial curve].
For `Cc1cc(C(F)(F)F)n2nc(C)c(-c3ccc(Cl)cc3)c2n1`, the “activity change, negative = inhibition” value was inactive: 13.5%.
In the case of `COc1cc(NC(=O)Cc2ccc(Cl)cc2)ccc1NC(=O)c1ccco1`, the Potency is reported as inconclusive: 35.5 µM [inhibitor, partial curve, poor fit].
For `COc1ccc(CNn2c(-c3cccs3)nc3ccccc3c2=O)cc1OC`, the Potency was inconclusive: 12.6 µM [inhibitor, partial curve].
With `NC(=O)CC(NC(=O)c1ccccc1)c1ccc(NCc2ccccc2)c([N+](=O)[O-])c1` (stereo not drawn) the Potency was active: 10 µM.
For `O=C(/C=C/Nc1ccc(F)cc1F)c1ccco1`, the Potency was inconclusive: 3.55 µM [inhibitor, full curve, poor fit].
For `Cc1cc(N2CCOCC2)nc(-c2ccc([N+](=O)[O-])cc2)n1`, the Potency was inconclusive: 31.6 µM [inhibitor, single point].
In the case of `CCOc1ccc(N(CC(=O)Nc2ccccc2C(=O)NCc2ccco2)S(C)(=O)=O)cc1`, the Potency is reported as inconclusive: 5.62 µM [inhibitor, partial curve, poor fit].
For `Cc1ccccc1-n1ncc2c(SCC(=O)N3c4ccccc4CC3C)ncnc21` (stereo not drawn), the Potency was inconclusive: 31.6 µM [inhibitor, single point].
With `O=C(NCC1CCCO1)c1ccc(/C=N/O)nc1` (stereo not drawn) the “activity change, negative = inhibition” value was inactive: 4.74%.
With `Cc1ccsc1/C=C1/SC(N2CC(C)OC(C)C2)=NC1=O` (stereo not drawn) the Potency was inconclusive: 11.2 µM [inhibitor, single point].
In the case of `CCCOc1ccc(-c2csc3nc[nH]c(=O)c23)cc1`, the Potency is reported as inconclusive: 11.2 µM [inhibitor, single point].
In the case of `Cc1cccc(C2=NCC(=O)N(CC(=O)NCc3ccco3)c3sc4c(c32)CCCC4)c1`, the Potency is reported as inconclusive: 31.6 µM [inhibitor, single point].
For `Oc1ccc(Cl)cc1-c1cc(-c2ccccc2Cl)[nH]n1`, the Potency was active: 12.6 µM.
For `O=C(CCN1CCCCC1)c1ccc2c(c1)OCCO2`, the “activity change, negative = inhibition” value was inactive: -3.1%.
For `COc1ccc(-c2cc(=O)oc3cc(OCC(=O)Nc4ccccn4)ccc23)cc1`, the Potency was inconclusive: 3.16 µM [inhibitor, single point].
With `Cc1cccc2c1NC(=O)C21OCC(CO)([N+](=O)[O-])CO1` (stereo not drawn) the “activity change, negative = inhibition” value was inactive: 15.3%.
In the case of `CCOc1ccccc1OCC(=O)Nc1ccc(OC)c(S(=O)(=O)N2CCCCC2)c1`, the Potency is reported as inconclusive: 1.26 µM [inhibitor, full curve].
With `O=[N+]([O-])c1cc(Cl)cc(/C=N\Nc2ccccn2)c1O` the Potency was inconclusive: 2.82 µM [inhibitor, full curve].
With `CCCC(C)C(=O)Nc1nc(C)c(-c2csc(Nc3ccc(Cl)cc3)n2)s1` (stereo not drawn) the activity change, negative = inhibition was inactive: -6.76% [at 8.37 µM].
For `O=C(O)c1ccccc1C(=O)Nc1ccccc1`, the “activity change, negative = inhibition” value was inactive: 13.3%.
With `COC(=O)Cn1c(C)c(C#N)c2ccccc21` the “activity change, negative = inhibition” value was inactive: 9.14%.
With `COc1ccc(CN(CCC(C)C)S(=O)(=O)c2ccccc2Br)c(OC)c1` the Potency was inconclusive: 22.4 µM [inhibitor, partial curve].
In the case of `COc1cc(SC#N)ccc1N=Cc1c(C)[nH]n(-c2ccc(C)cc2)c1=O`, the Potency is reported as inconclusive: 0.501 µM [inhibitor, full curve, poor fit].
With `COc1ccc(S(=O)(=O)N(C)CC(=O)NC2CC2)cc1OC` the “activity change, negative = inhibition” value was inactive: 3.2%.
With `CCC(=O)NCCc1nc2cc(NC(=O)c3ccc(OC)cc3)ccc2n1C` the “activity change, negative = inhibition” value was inactive: -10.9%.
In the case of `COc1ccc(S(=O)(=O)c2c(O)c3ccc(C(=O)Nc4cccc(F)c4)cc3[nH]c2=O)cc1`, the Potency is reported as inconclusive: 15.8 µM [inhibitor, partial curve].
In the case of `C=CCSC1=Nc2cc(OC)c(OC)cc2C2=NC(=O)CN12`, the Potency is reported as inconclusive: 7.94 µM [inhibitor, partial curve].
For `O=C(Nc1ccccc1NC(=O)c1ccc(F)cc1)c1ccc(F)cc1`, the “activity change, negative = inhibition” value was inactive: 13.9%.
In the case of `O=C(COc1ccccc1Cl)Nc1cnn(Cc2ccccc2)c1`, the Potency is reported as inconclusive: 4.47 µM [inhibitor, full curve].
For `O=C1CC(C(=O)Nc2ccc(Cl)c(Cl)c2)S/C(=N\N=C\c2ccco2)N1` (stereo not drawn), the Potency was inconclusive: 35.5 µM [inhibitor, single point].
With `COC(=O)CSc1nnc2n1C(C)(C)Cc1ccccc1-2` the Potency was inconclusive: 5.62 µM [inhibitor, single point].
In the case of `O=C1/C(=C\c2cccc(O)c2O)SC(=S)N1Cc1ccccc1`, the Potency is reported as active: 25.1 µM.
With `COc1ccc(CNCCc2ccccc2F)c(OC)c1C` the Potency was inconclusive: 25.1 µM [inhibitor, single point].
With `CCOC(=O)[C@H]1[C@H]2COc3ccc(Br)cc3[C@@H]2N2C(=O)N(c3ccc(F)cc3)C(=O)[C@@]12C` the Potency was inconclusive: 3.98 µM [inhibitor, single point].
For `CCCn1c(=N)n(CC(=O)c2ccc(OCC(=O)OC)cc2)c2ccccc21`, the Potency was inconclusive: 22.4 µM [inhibitor, single point].
For `CCOC(=O)c1cc(C(=O)OCC)cc(-n2c(C)cc(C(=O)CN3CCOCC3)c2C)c1`, the Potency was inconclusive: 3.16 µM [inhibitor, single point].
For `Cc1[nH]c2ccccc2c1/C=N/NC(=O)c1cc(-c2ccccc2)n[nH]1`, the Potency was inconclusive: 31.6 µM [inhibitor, single point].
With `Cc1cccc(Oc2ccc(Cl)cc2N)c1` the “activity change, negative = inhibition” value was inactive: -2.22%.
With `CCCN(C(=O)c1cccc(S(=O)(=O)N2CCN(C)CC2)c1)c1c(N)n(Cc2ccccc2)c(=O)[nH]c1=O` the Potency was inconclusive: 20 µM [inhibitor, single point].
In the case of `COc1ccc(Nc2cc(Nc3cc(OC)c(OC)c(OC)c3)ncn2)cc1`, the Potency is reported as inconclusive: 14.1 µM [inhibitor, single point].
With `NS(=O)(=O)c1ccc(N/N=C2/CCCCC2C2CCCCC2)c([N+](=O)[O-])c1` (stereo not drawn) the Potency was inconclusive: 10 µM [inhibitor, partial curve].
For `Cc1cc(N2C(=O)C(=O)/C(=C(/O)c3ccccc3)C2c2cccc(Br)c2)no1` (stereo not drawn), the Potency was inconclusive: 3.16 µM [inhibitor, single point].
With `O=C(NCCC(=O)N1CCN(c2ccccc2O)CC1)c1ccc(Br)cc1` the “activity change, negative = inhibition” value was inactive: -0.185%.
With `O=C(Nc1ccc(N2CCN(C(=O)c3ccc(Cl)cc3)CC2)cc1)c1ccc(Br)o1` the Potency was inconclusive: 31.6 µM [inhibitor, single point].
In the case of `N#Cc1c(N)nc(Sc2ccc(Cl)cc2)c(C#N)c1-c1ccccc1Cl`, the Potency is reported as active: 11.2 µM.
